Measurements published in the supplement of paper PMC12423691.
The list shows a part of the results. Binding of human transcription factors and regulators to the viral nucleoprotein by AlphaScreen, crude cell-free proteins, amounts not normalised, one pass. Fold of the Venus control; higher = more signal. No active / inactive call. Single-pass screen; sequences are the whole Swiss-Prot entries looked up by name.

B1: ARID3A, Q99856 (protein)
chain: MKLQAVMETLLQRQQRARQELEARQQLPPDPPAAPPGRARAAPDEDREPESARMQRAQMAALAAMRAAAAGLGHPASPGGSEDGPPGSEEEDAAREGTPGSPGRGREGPGEEHFEDMASDEDMKPKWEEEEMEEDLGEDEEEEEEDYEDEEEEEDEEGLGPPGPASLGTTALFPRKAQPPQAFRGDGVPRVLGGQERPGPGPAHPGGAAHVAPQLQPPDHGDWTYEEQFKQLYELDGDPKRKEFLDDLFSFMQKRGTPVNRIPIMAKQVLDLFMLYVLVTEKGGLVEVINKKLWREITKGLNLPTSITSAAFTLRTQYMKYLYPYECEKRGLSNPNELQAAIDSNRREGRRQSFGGSLFAYSPGGAHGMLSSPKLPVSSLGLAASTNGSSITPAPKIKKEEDSAIPITVPGRLPVSLAGHPVVAAQAAAVQAAAAQAAVAAQAAALEQLREKLESAEPPEKKMALVADEQQRLMQRALQQNFLAMAAQLPMSIRINSQASESRQDSAVNLTGTNGSNSISMSVEINGIMYTGVLFAQPPAPTPTSAPNKGGGGGGGSSSNAGGRGGNTGTSGGQAGPAGLSTPSTSTSNNSLP
B2: CNBP, P62633 (protein)
chain: MSSNECFKCGRSGHWARECPTGGGRGRGMRSRGRGGFTSDRGFQFVSSSLPDICYRCGESGHLAKDCDLQEDACYNCGRGGHIAKDCKEPKREREQCCYNCGKPGHLARDCDHADEQKCYSCGEFGHIQKDCTKVKCYRCGETGHVAINCSKTSEVNCYRCGESGHLARECTIEATA
B3: ZNF35, P13682 (protein)
chain: MTAELREAMALAPWGPVKVKKEEEEEENFPGQASSQQVHSENIKVWAPVQGLQTGLDGSEEEEKGQNISWDMAVVLKATQEAPAASTLGSYSLPGTLAKSEILETHGTMNFLGAETKNLQLLVPKTEICEEAEKPLIISERIQKADPQGPELGEACEKGNMLKRQRIKREKKDFRQVIVNDCHLPESFKEEENQKCKKSGGKYSLNSGAVKNPKTQLGQKPFTCSVCGKGFSQSANLVVHQRIHTGEKPFECHECGKAFIQSANLVVHQRIHTGQKPYVCSKCGKAFTQSSNLTVHQKIHSLEKTFKCNECEKAFSYSSQLARHQKVHITEKCYECNECGKTFTRSSNLIVHQRIHTGEKPFACNDCGKAFTQSANLIVHQRSHTGEKPYECKECGKAFSCFSHLIVHQRIHTAEKPYDCSECGKAFSQLSCLIVHQRIHSGDLPYVCNECGKAFTCSSYLLIHQRIHNGEKPYTCNECGKAFRQRSSLTVHQRTHTGEKPYECEKCGAAFISNSHLMRHHRTHLVE
B4: MEIS1, O00470 (protein)
chain: MAQRYDDLPHYGGMDGVGIPSTMYGDPHAARSMQPVHHLNHGPPLHSHQYPHTAHTNAMAPSMGSSVNDALKRDKDAIYGHPLFPLLALIFEKCELATCTPREPGVAGGDVCSSESFNEDIAVFAKQIRAEKPLFSSNPELDNLMIQAIQVLRFHLLELEKVHELCDNFCHRYISCLKGKMPIDLVIDDREGGSKSDSEDITRSANLTDQPSWNRDHDDTASTRSGGTPGPSSGGHTSHSGDNSSEQGDGLDNSVASPSTGDDDDPDKDKKRHKKRGIFPKVATNIMRAWLFQHLTHPYPSEEQKKQLAQDTGLTILQVNNWFINARRRIVQPMIDQSNRAVSQGTPYNPDGQPMGGFVMDGQQHMGIRAPGPMSGMGMNMGMEGQWHYM
B5: IRF1, P10914 (protein)
chain: MPITRMRMRPWLEMQINSNQIPGLIWINKEEMIFQIPWKHAAKHGWDINKDACLFRSWAIHTGRYKAGEKEPDPKTWKANFRCAMNSLPDIEEVKDQSRNKGSSAVRVYRMLPPLTKNQRKERKSKSSRDAKSKAKRKSCGDSSPDTFSDGLSSSTLPDDHSSYTVPGYMQDLEVEQALTPALSPCAVSSTLPDWHIPVEVVPDSTSDLYNFQVSPMPSTSEATTDEDEEGKLPEDIMKLLEQSEWQPTNVDGKGYLLNEPGVQPTSVYGDFSCKEEPEIDSPGGDIGLSLQRVFTDLKNMDATWLDSLLTPVRLPSIQAIPCAP
B6: ZNF451, Q9Y4E5 (protein)
chain: MGDPGSEIIESVPPAGPEASESTTDENEDDIQFVSEGPLRPVLEYIDLVSSDDEEPSTSYTDENIKRKDHIDYQKDKVALTLARLARHVEVEKQQKEEKNRAFREKIDFQHAHGLQELEFIRGHSDTEAARLCVDQWLKMPGLKTGTINCGTKSSFRRGGHTWVSGKPILCPIMHCNKEFDNGHLLLGHLKRFDHSPCDPTITLHGPFFSSFACVVCYKKFVTQQQYRDHLFDKEATDDGHNNNLLPQIIQCFACPNCFLLFSRKEECSKHMSGKNHFHQSFKLGDNKGIAHPISFPSFAKKLLISLCKDVPFQVKCVACHKTLRSHMELTAHFRVHCRNAGPVAVAEKSITQVAEKFILRGYCPDCNQVFVDETSTQNHKQNSGHKVRVINSVEESVLLYCHSSEGNKDPSSDLHLLLDQSKFSSLKRTMSIKESSSLECIAIPKKKMNLKDKSHEGVACVQKEKSVVKTWFCECNQRFPSEDAVEKHVFSANTMGYKCVVCGKVCDDSGVIRLHMSRIHGGAHLNNFLFWCRTCKKELTRKDTIMAHVTEFHNGHRYFYEMDEVEGETLPSSSTTLDNLTANKPSSAITVIDHSPANSSPRGKWQCRICEDMFDSQEYVKQHCMSLASHKFHRYSCAHCRKPFHKIETLYRHCQDEHDNEIKIKYFCGLCDLIFNVEEAFLSHYEEHHSIDYVFVSEKTETSIKTEDDFPVIETSNQLTCGCRESYICKVNRKEDYSRCLQIMLDKGKLWFRCSLCSATAQNLTDMNTHIHQVHKEKSDEEEQQYVIKCGTCTKAFHDPESAQQHFHRKHCFLQKPSVAHFGSEKSNLYKFTASASHTERKLKQAINYSKSLDMEKGVENDLSYQNIEEEIVELPDLDYLRTMTHIVFVDFDNWSNFFGHLPGHLNQGTFIWGFQGGNTNWKPPLNCKIYNYLNRIGCFFLHPRCSKRKDAADFAICMHAGRLDEQLPKQIPFTILSGDQGFLELENQFKKTQRPAHILNPHHLEGDMMCALLNSISDTTKECDSDDNMGAKNTSIGEEFISTEDVELEEAIRRSLEEM
B7: ELF3, P78545 (protein)
chain: MAATCEISNIFSNYFSAMYSSEDSTLASVPPAATFGADDLVLTLSNPQMSLEGTEKASWLGEQPQFWSKTQVLDWISYQVEKNKYDASAIDFSRCDMDGATLCNCALEELRLVFGPLGDQLHAQLRDLTSSSSDELSWIIELLEKDGMAFQEALDPGPFDQGSPFAQELLDDGQQASPYHPGSCGAGAPSPGSSDVSTAGTGASRSSHSSDSGGSDVDLDPTDGKLFPSDGFRDCKKGDPKHGKRKRGRPRKLSKEYWDCLEGKKSKHAPRGTHLWEFIRDILIHPELNEGLMKWENRHEGVFKFLRSEAVAQLWGQKKKNSNMTYEKLSRAMRYYYKREILERVDGRRLVYKFGKNSSGWKEEEVLQSRN
B8: CREB5, Q02930 (protein)
chain: MIYEESKMNLEQERPFVCSAPGCSQRFPTEDHLMIHRHKHEMTLKFPSIKTDNMLSDQTPTPTRFLKNCEEVGLFSELDCSLEHEFRKAQEEESSKRNISMHNAVGGAMTGPGTHQLSSARLPNHDTNVVIQQAMPSPQSSSVITQAPSTNRQIGPVPGSLSSLLHLHNRQRQPMPASMPGTLPNPTMPGSSAVLMPMERQMSVNSSIMGMQGPNLSNPCASPQVQPMHSEAKMRLKAALTHHPAAMSNGNMNTMGHMMEMMGSRQDQTPHHHMHSHPHQHQTLPPHHPYPHQHQHPAHHPHPQPHHQQNHPHHHSHSHLHAHPAHHQTSPHPPLHTGNQAQVSPATQQMQPTQTIQPPQPTGGRRRRVVDEDPDERRRKFLERNRAAATRCRQKRKVWVMSLEKKAEELTQTNMQLQNEVSMLKNEVAQLKQLLLTHKDCPITAMQKESQGYLSPESSPPASPVPACSQQQVIQHNTITTSSSVSEVVGSSTLSQLTTHRTDLNPIL
B9: NR1I3, Q14994 (protein)
chain: MASREDELRNCVVCGDQATGYHFNALTCEGCKGFFRRTVSKSIGPTCPFAGSCEVSKTQRRHCPACRLQKCLDAGMRKDMILSAEALALRRAKQAQRRAQQTPVQLSKEQEELIRTLLGAHTRHMGTMFEQFVQFRPPAHLFIHHQPLPTLAPVLPLVTHFADINTFMVLQVIKFTKDLPVFRSLPIEDQISLLKGAAVEICHIVLNTTFCLQTQNFLCGPLRYTIEDGARVSPTVGFQVEFLELLFHFHGTLRKLQLQEPEYVLLAAMALFSPDRPGVTQRDEIDQLQEEMALTLQSYIKGQQRRPRDRFLYAKLLGLLAELRSINEAYGYQIQHIQGLSAMMPLLQEICS
B10: FOS, P01100 (protein)
chain: MMFSGFNADYEASSSRCSSASPAGDSLSYYHSPADSFSSMGSPVNAQDFCTDLAVSSANFIPTVTAISTSPDLQWLVQPALVSSVAPSQTRAPHPFGVPAPSAGAYSRAGVVKTMTGGRAQSIGRRGKVEQLSPEEEEKRRIRRERNKMAAAKCRNRRRELTDTLQAETDQLEDEKSALQTEIANLLKEKEKLEFILAAHRPACKIPDDLGFPEEMSVASLDLTGGLPEVATPESEEAFTLPLLNDPEPKPSVEPVKSISSMELKTEPFDDFLFPASSRPSGSETARSVPDMDLSGSFYAADWEPLHSGSLGMGPMATELEPLCTPVVTCTPSCTAYTSSFVFTYPEADSFPSCAAAHRKGSSSNEPSSDSLSSPTLLAL

target: nucleoprotein N of Crimean-Congo hemorrhagic fever virus; assay: AlphaScreen luminescence signal relative to Venus negative control (fold); higher = stronger binding to CCHFV N
Description: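 AlphaScreen binding of cell-free made, FLAG-GST-tagged human transcription factors and regulators (crude translation products) to biotinylated N protein; signal as fold of the FLAG-GST-Venus control. One pass.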

Row | Binder | AlphaScreen luminescence signal
1 | B1 | 1.67
2 | B2 | 3.86
3 | B3 | 2
4 | B4 | 2.33
5 | B5 | 4.74
6 | B6 | 3.26
7 | B7 | 2.14
8 | B8 | 2.05
9 | B9 | 2.47
10 | B10 | 1.86
